Experimental data taken from paper PMC3323469 (2012).

Target: T1, Bombesin (Bombina bombina, UniProt P84214)
T1 chain: QQRLGNQWAVGHLM
Assay: competition binding with [125I-Tyr4]bombesin on PC3 cells

B1: Gastrin-releasing peptide receptor (protein)
chain: MALNDCFLLNLEVDHFMHCNISSHSADLPVNDDWSHPGILYVIPAVYGVIILIGLIGNITLIKIFCTVKSMRNVPNLFISSLALGDLLLLITCAPVDASRYLADRWLFGRIGCKLIPFIQLTSVGVSVFTLTALSADRYKAIVRPMDIQASHALMKICLKAAFIWIISMLLAIPEAVFSDLHPFHEESTNQTFISCAPYPHSNELHPKIHSMASFLVFYVIPLSIISVYYYFIAKNLIQSAYNLPVEGNIHVKKQIESRKRLAKTVLVFVGLFAFCWLPNHVIYLYRSYHYSEVDTSMLHFVTSICARLLAFTNSCVNPFALYLLSKSFRKQFNTQLLCCQPGLIIRSHSTGRSTTCMTSLKSTNPSVATFSLINGNICHERYV
Ki: 0.59 nM
